Out of some 370,000 compounds screened, about 500 (0.14%) were called active. Inconclusive results, whose numbers are uncertain, are shown with a selection of clear calls. The call rests on the fitted dose curve; in most records, active means well fitted activation curve with a large enough effect; inconclusive means small, poorly fitted or top-dose-only effect; inactive means no such curve, though single readings can be large or run the other way. No potency is given beside an inconclusive call; the fits are too rough.
Assay: qHTS of alpha-syn Inhibitors; further: nearly all actives have a fitted effect of over 65% in size; on growth rescue (activation): % of control where 0% means no effect
Settings: Yeast expressing alpha-synuclein, BacTiter-Glo, 24 h; Potency: growth rescue unless noted; growth rescue (activation): at 46.1 µM (top of the series) unless noted
In short: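 Screening used galactose-induced yeast with toxic alpha-synuclein levels, exposed to compound for 24 hr at 30 deg C. Cell growth, read with BacTiter-Glo luminescence, gave the measured signal.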
With `N#Cc1c(N)nc2c(c1-c1ccc(Br)s1)CCCC2` the Potency was “inactive”.
For `O=C(C1CCN(c2ncnc3c2nc2n3CCCCC2)CC1)N1CCN(c2ccc(F)cc2)CC1`, the Potency was inconclusive [activator, single point].
With `COc1ccc(/C=N/NC(=O)c2cccc(O)c2)cc1Cn1nc(C)c([N+](=O)[O-])c1C` the Potency was inconclusive [activator, single point].
In the case of `FC(F)(F)c1cnc(NNC(=S)Nc2ccccc2)c(Cl)c1`, the Potency is reported as inconclusive [activator, single point].
With `CCOc1ccc(NS(=O)(=O)c2ccc(-c3cnc(C4CC4)o3)cc2)cc1` the Potency was inconclusive [activator, single point].
With `CCOC(=O)[C@]12CCC=C1N(Cc1cccc3ccccc13)C(=O)[C@H](CC(=O)NCCc1ccccc1OC)C2` the Potency was inconclusive [activator, single point].
In the case of `COC(=O)C1=C2SC(C)C(=O)N2C(N)=C(C#N)C1c1ccc(OC)c(OC)c1` (stereo unspecified), the Potency is reported as “inactive”.
In the case of `CC(C)(C)OC(=O)Nc1ccccc1-n1nnnc1C(C(=O)c1ccc(F)cc1)N1CCOCC1` (stereo unspecified), the Potency is reported as inconclusive [activator, single point].
For `C=C1C=C(C(F)F)n2ncc(C(=O)NCc3ccccc3OC)c2N1`, the Potency was “inactive”.
For `O=C(O)c1ccccc1OCCOCCOc1ccccc1C(=O)O`, the Potency was inconclusive [activator, single point].
With `CCO[C@@H]1OC(C(=O)Nc2ccccc2)=C[C@H](c2ccc(Br)cc2)[C@H]1CCCO` the Potency was inconclusive [activator, single point].
With `COc1cc(C(=O)NCc2ccc(-c3nc4ccccc4s3)cc2)cc(OC)c1OC` the Potency was inconclusive [activator, single point].
With `Cc1nnc(NC(=O)c2ccc3ccccc3c2)o1` the Potency was inconclusive [activator, single point].
With `CC(C)(C)C(=O)Nc1ccc2c(c1)C(=O)C(=O)c1ccccc1-2` the Potency was “inactive”.
For `COc1ccc(C(=O)OCCN2C(=O)c3ccccc3C2=O)cc1`, the Potency was inconclusive [activator, single point].
For `N#C/C(=C\c1cccc(Br)c1)C(=O)N1CCCCC1`, the Potency was inconclusive [activator, single point].
In the case of `S=C(NN=Cc1ccccn1)Nc1ccccn1`, the Potency is reported as inconclusive [activator, single point].
With `Cc1cc2[nH]c3c(c[n+](C)c4ccccc34)c2cc1C` the Potency was inconclusive [activator, full curve].
In the case of `COc1ccc(Cl)cc1NS(=O)(=O)c1ccc(S(=O)(=O)N2CCCC2)cc1`, the Potency is reported as inconclusive [activator, partial curve].
In the case of `COC(=O)c1ccc2nc(-c3ccc(F)cc3)c(Cc3cccc(Cl)c3)n2c1`, the Potency is reported as inconclusive [activator, single point].
With `Cc1ccc(NC(=O)CCNC(=O)c2ccccc2Cl)cc1S(=O)(=O)N1CCOCC1` the Potency was inconclusive [activator, single point].
For `O=C(NC[C@H]1CCCO1)c1cccc2c1C(=O)c1ccc(-c3ccc(F)cc3OCc3ccccc3)cc1S2(=O)=O`, the Potency was inconclusive [activator, single point].
For `Cc1c(C(=O)NCCc2ccc(S(N)(=O)=O)cc2)cccc1[N+](=O)[O-]`, the Potency was inconclusive [activator, single point].
With `COC(=O)c1cccc(NC(=O)C2COc3ccccc3O2)c1C` (stereo unspecified) the Potency was inconclusive [activator, single point].
In the case of `CC(C)NS(=O)(=O)c1ccc2[nH]c3nc(SCC(=O)Nc4ccc(F)c(F)c4)nnc3c2c1`, the Potency is reported as “inactive”.
In the case of `Cc1nn(Cc2nc(-c3cccs3)no2)c(C)c1Br`, the Potency is reported as inconclusive [activator, single point].
With `CCCc1cc2c(cc1NC(=O)c1ccccc1F)OCO2` the Potency was inconclusive [activator, single point].
For `O=S(=O)(c1ccccc1F)N1CCCc2ccccc21`, the Potency was inconclusive [activator, single point].
For `N#Cc1nc(COc2ccc(Cl)cc2)oc1N1CCN(Cc2ccccc2)CC1`, the Potency was “inactive”.
With `COCCSc1nnc(NC(=O)c2ccc(NC(=O)C(C)C)cc2)s1` the Potency was inconclusive [activator, single point].
For `Cc1ccc2c(c1)[C@H]1[C@H](CO2)[C@H](c2ccccc2)[C@]2(C)C(=O)N(Cc3ccc(F)cc3)CC(=O)N12`, the Potency was “inactive”.
With `CCOC(=O)N1CCN(C(=O)c2ccc3nc4ccsc4c(=O)n3c2)CC1` the Potency was inconclusive [activator, single point].
With `COc1ccc2[nH]c(=O)c3c(c2c1)OC(C)(C)C=C3` the Potency was “inactive”.
With `Cc1ccc(Cl)cc1N1CCN(C(=O)COc2ccc3c(c2)CCC3)CC1` the Potency was inconclusive [activator, partial curve].
With `COc1cccc(C(=O)/C=C/c2ccc(OCC#N)c(OC)c2)c1` the Potency was inconclusive [activator, single point].
In the case of `CCCNC(=O)C1(C)CCCN(C(=O)Cc2cccc(OC)c2)C1` (stereo unspecified), the Potency is reported as inconclusive [activator, single point].
In the case of `CC(C)(C)c1ccc(C(=O)N2CCC(=O)N(C(COCc3ccccc3)Cc3ccccc3)CC2)cc1` (stereo unspecified), the Potency is reported as inconclusive [activator, single point].
In the case of `Cc1[nH]c2ccccc2c1/C=N/NC(=S)NCc1ccccc1`, the Potency is reported as inconclusive [activator, single point].
For `C/C(=N\NC(=O)c1nnn(-c2nonc2N)c1CN(C)c1ccccc1)c1ccccc1O`, the Potency was inconclusive [activator, single point].
With `C/C(CCc1oc2c(Br)cc(Br)cc2c1-c1ccc(C)o1)=N\O` the Potency was inconclusive [activator, single point].
For `Cn1c(/C=N/NC(=O)c2ccccc2Br)nc2ccccc21`, the Potency was inconclusive [activator, partial curve].
With `CN(C)CCNC(C(=O)Nc1cccc(C(F)(F)F)c1)c1ccccc1` (stereo unspecified) the Potency was “inactive”.
In the case of `CCN(Cc1ccncc1)Cc1nc(-c2ccc(C(=O)OC)cc2)no1`, the Potency is reported as inconclusive [activator, single point].
With `CCCCn1c(N)c(N(CCOC)C(=O)c2ccc(-c3cccc(C(F)(F)F)c3)o2)c(=O)[nH]c1=O` the Potency was inconclusive [activator, single point].
With `Cc1ccc2nc(SCC(=O)Nc3cc(C(C)(C)C)nn3-c3ccccc3)[nH]c2c1` the Potency was inconclusive [activator, single point].
For `COc1ccc(OC)c(-c2csc(NC(=O)COC(=O)C3(C)CC3(Cl)Cl)n2)c1` (stereo unspecified), the growth rescue (activation) was inactive: -0.241% [at 1.84 µM].
With `CCNC1=C(Cl)C(=O)c2ccccc2C1=O` the Potency was “inactive”.
In the case of `CCN1C(=O)[C@H]2[C@@H](c3ccc(-c4cccc(Cl)c4)cc3)N[C@@](C)(C(=O)OC)[C@H]2C1=O`, the Potency is reported as inconclusive [activator, single point].
For `C=CCNc1nc2ccccc2nc1NS(=O)(=O)c1ccc(Br)cc1`, the Potency was inconclusive [activator, single point].
In the case of `Nc1ccc(-c2nc3ncccc3o2)c(Cl)c1`, the Potency is reported as active: 14.1 µM.
For `COc1cccc(C(O)c2nc(-c3cc4ccccc4o3)cs2)c1` (stereo unspecified), the Potency was inconclusive [activator, single point].
For `Cn1c(NCCCO)nc2c(c1=O)C1(CCCCC1)Cc1ccccc1-2`, the Potency was inconclusive [activator, single point].
With `CC(=O)CSc1ncnc2sc3c(c12)CCC3` the Potency was inconclusive [activator, partial curve].
For `Nn1c(Cc2cccc3ccccc23)nnc1SCc1ccc(Cl)c(Cl)c1`, the Potency was inconclusive [activator, single point].
With `OC(c1cc(Cl)cc(Cl)c1)c1ncc(-c2cccc(F)c2)[nH]1` (stereo unspecified) the Potency was inconclusive [activator, single point].
For `OC(COc1ccc2c(c1)CCC2)Cn1cnc2ccccc21` (stereo unspecified), the Potency was “inactive”.
For `CCCCCCN1C[C@@H](n2cc(C3CC3)nn2)[C@H](O)C[C@@H]1c1ccc(Cl)cc1`, the Potency was inconclusive [activator, single point].
In the case of `CCSc1nnc([C@@H](NC(=O)OC(C)(C)C)C(C)C)o1`, the Potency is reported as inconclusive [activator, single point].
For `Cc1ccc(SCc2nn(C)c(Cl)c2C=O)cc1`, the Potency was inconclusive [activator, single point].
In the case of `O=C1C=C(c2ccccc2)C(=O)N1Nc1ccccc1`, the growth rescue (activation) is reported as inconclusive: -76.9% [activator].
With `Cc1cc(C(=O)N2CCN(c3ccc(F)cc3)CC2)on1` the Potency was inconclusive [activator, single point].
In the case of `O=c1c2ccccc2nnn1CCc1ccccc1`, the Potency is reported as “inactive”.
In the case of `CC(=O)N1CCN(CCN=CC2=C(O)CC(C)(C)CC2=O)CC1`, the Potency is reported as inconclusive [activator, single point].
For `Cc1cc2c(cc1C)NC(=O)CC(c1ccccc1)=N2`, the Potency was inconclusive [activator, single point].
With `Cc1cc(=O)n2nc(N3CCCC(C(=O)Nc4ccc(C)c(C)c4)C3)sc2n1` (stereo unspecified) the Potency was inconclusive [activator, single point].
In the case of `COC(=O)c1ccc(OCC2c3cc(OC)c(OC)cc3CCN2C(=O)COc2ccc(Cl)cc2)cc1` (stereo unspecified), the Potency is reported as inconclusive [activator, single point].
Potency means the concentration at half of the fitted maximal effect; tags describe the fitted curve by direction and shape.
